In publication PMC5892938 one finds binding signal (log2 fold change) data, which are given here for 74 sequences.

This is one part of the list. At the low end of the ranking the order means little.

In the assay the target is GST-SBP-SLBP (stem-loop binding protein) (UniProt Q14493). The assay can be described thus: targeted RNA Bind-n-Seq.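 Also: DESeq read counts versus GST-SBP nonspecific binding control pulldown.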 The settings on record: RBNS binding buffer: 25 mM Tris pH 7.5, 150 mM KCl, 3 mM MgCl2, 0.1% Tween, 0.5 mg/mL BSA, 1 mM DTT; 27 nM protein, 750 pM RNA pool; temperature not stated; high values mean tight binding.
Regarding “GGUCACGUCUCAAUCAACUCUUUCCCAGGAGUUUCCUCCUGUAUUCUCAACAGCUCGCAGUCAAG”, the binding signal (log2 fold change) is -0.0405.
In the case of “GGUCACGUCUCAAUCAACUCAUCUCCAGGAGUUUCCUCCUGCAAAUUCAACAGCUCGCAGUCAAG” it was 0.116; in that of “GGUCACGUCUCAAUCAACUCAUCCUCAGGAGUUUCCUCCUGCAAAGUCAACAGCUCGCAGUCAAG”, 0.259.
In the case of “GGUCACGUCUCAAUCAACUCAUCCCCCAGGGAAAUCCCUGGCUUUUUCAACAGCUCGCAGUCAAG” it was -0.131; in that of “GGUCACGUCUCAAUCAACUCUUCGUCAGGAGUUUUCUCCUGUAUUUUCAACAGCUCGCAGUCAAG”, -0.0348; in that of “GGUCACGUCUCAAUCAACUCUUUCUCAGGAGUUUACUCCUGCAAACUCAACAGCUCGCAGUCAAG”, 0.177.
Take “GGUCACGUCUCAAUCAACUCAUCCUCCAGGGAAAACCCUGGCAAACUCAACAGCUCGCAGUCAAG”: the binding signal (log2 fold change) is -0.0263.
Turning to “GGUCACGUCUCAAUCAACUCGUCUUCAGGAGUUUACUCCUGUUUUUUCAACAGCUCGCAGUCAAG”, the binding signal (log2 fold change) is -0.318.
In the case of “GGUCACGUCUCAAUCAACUCAUUCUCAGGAGUUUGCUCCUGUUUUCUCAACAGCUCGCAGUCAAG” it was 0.0431; in that of “GGUCACGUCUCAAUCAACUCAUCCUCCAGGGAAACCCCUGGCUAUUUCAACAGCUCGCAGUCAAG”, 0.363; in that of “GGUCACGUCUCAAUCAACUCAAUCCCCAGGGAAAUCCCUGGUUUUUUCAACAGCUCGCAGUCAAG”, -0.203.
For “GGUCACGUCUCAAUCAACUCAAUCCCAGGAGUUUGCUCCUGCUAAUUCAACAGCUCGCAGUCAAG” the value was 0.218; for “GGUCACGUCUCAAUCAACUCAUCGUCCAGGGAAACCCCUGGUUUUUUCAACAGCUCGCAGUCAAG”, -0.521.
In the case of “GGUCACGUCUCAAUCAACUCUAUCUCCAGGGAAAACCCUGGCAAUGUCAACAGCUCGCAGUCAAG” it was 0.174; in that of “GGUCACGUCUCAAUCAACUCUUUAGAGGGGGGGAAAACCCCUUUACCCUCACUAUCAACAGCUCGCAGUCAAG”, -0.273.
“GGUCACGUCUCAAUCAACUCAAUCCCAGGAGUUUCCUCCUGCAAACUCAACAGCUCGCAGUCAAG”: the binding signal (log2 fold change) was 0.257.
For “GGUCACGUCUCAAUCAACUCCAUAGAGGGGGGGAAAACCCCUUUACCCUCACUUUCAACAGCUCGCAGUCAAG” the value was 0.0449.
With “GGUCACGUCUCAAUCAACUCUACUCCCAGGGAAAUCCCUGGCAUUUUCAACAGCUCGCAGUCAAG”, the binding signal (log2 fold change) was 0.0133.
On to “GGUCACGUCUCAAUCAACUCAAUUUCAGGAGUUUGCUCCUGCUAACUCAACAGCUCGCAGUCAAG”, for which the binding signal (log2 fold change) is -0.0757.
As to “GGUCACGUCUCAAUCAACUCUUCCCCAGGAGUUUCCUCCUGUAAUUUCAACAGCUCGCAGUCAAG”, the binding signal (log2 fold change) was determined as 0.000716.
Regarding “GGUCACGUCUCAAUCAACUCUAAGGAGGGGGGGAAAACCCCUUUACCCUCAACCUCAACAGCUCGCAGUCAAG”, the binding signal (log2 fold change) was -0.0488.
As to “GGUCACGUCUCAAUCAACUCAUCUUCAGGAGUUUUCUCCUGCUAACUCAACAGCUCGCAGUCAAG”, the binding signal (log2 fold change) is 0.0484.
For “GGUCACGUCUCAAUCAACUCAUCGCCAGGAGUUUUCUCCUGUAUUUUCAACAGCUCGCAGUCAAG” the value was -0.0404.
Take “GGUCACGUCUCAAUCAACUCUUUCCCAGGAGUUUUCUCCUGUUUACUCAACAGCUCGCAGUCAAG”: the binding signal (log2 fold change) was -0.0311.
“GGUCACGUCUCAAUCAACUCUUCUUCAGGAGUUUACUCCUGUAAUUUCAACAGCUCGCAGUCAAG”: the binding signal (log2 fold change) was -0.108.
In the case of “GGUCACGUCUCAAUCAACUCUACUCCCAGGGAAAUCCCUGGCAUAUUCAACAGCUCGCAGUCAAG” it was 0.29.
For “GGUCACGUCUCAAUCAACUCAAAAGAGGGGGGGAAAACCCCUUUGCCCUCCAAUUCAACAGCUCGCAGUCAAG” the value was -0.306; for “GGUCACGUCUCAAUCAACUCAUGUCCAGGAGUUUACUCCUGCUUUCUCAACAGCUCGCAGUCAAG”, -0.172.
In the case of “GGUCACGUCUCAAUCAACUCUACUCCCAGGGAAACCCCUGGUUAACUCAACAGCUCGCAGUCAAG” it was -0.174; in that of “GGUCACGUCUCAAUCAACUCCAUCGAGGGGGGGAAAACCCCUUUACCCUCAAUCUCAACAGCUCGCAGUCAAG”, -0.222; in that of “GGUCACGUCUCAAUCAACUCUACUUCCAGGGAAAUCCCUGGUUAACUCAACAGCUCGCAGUCAAG”, 0.0736.
Regarding “GGUCACGUCUCAAUCAACUCCUUAGAGGGGGGGAAAACCCCUUUGCCCUCCAUUUCAACAGCUCGCAGUCAAG”, the binding signal (log2 fold change) is -0.0182.
As to “GGUCACGUCUCAAUCAACUCAUCUUCCAGGGAAAUCCCUGGCAUAUUCAACAGCUCGCAGUCAAG”, the binding signal (log2 fold change) stood at 0.29.
Turning to “GGUCACGUCUCAAUCAACUCAUUCCCAGGAGUUUUCUCCUGUAGUCUCAACAGCUCGCAGUCAAG”, the binding signal (log2 fold change) came out at 0.0931.
On to “GGUCACGUCUCAAUCAACUCAACUCCAGGAGUUUCCUCCUGCAUACUCAACAGCUCGCAGUCAAG”, for which the binding signal (log2 fold change) is 0.0523.
Consider “GGUCACGUCUCAAUCAACUCUUCGUCCAGGGAAAGCCCUGGCAUUUUCAACAGCUCGCAGUCAAG”, for which the binding signal (log2 fold change) is -0.281.
For “GGUCACGUCUCAAUCAACUCUUCCCCAGGAGUUUACUCCUGUUUAUUCAACAGCUCGCAGUCAAG” the value was 0.121; for “GGUCACGUCUCAAUCAACUCUUCGCCCAGGGAAAUCCCUGGUAAAUUCAACAGCUCGCAGUCAAG”, -0.146.
In the case of “GGUCACGUCUCAAUCAACUCAAGUCCCAGGGAAAGCCCUGGUUAAUUCAACAGCUCGCAGUCAAG” it was -0.126; in that of “GGUCACGUCUCAAUCAACUCAAUUUCCAGGGAAAGCCCUGGCUUUUUCAACAGCUCGCAGUCAAG”, 0.267; in that of “GGUCACGUCUCAAUCAACUCCUUAGAGGGGGGGAAAACCCCUUUACCCUCGUAUUCAACAGCUCGCAGUCAAG”, 0.186.
In the case of “GGUCACGUCUCAAUCAACUCUAUUUCAGGAGUUUUCUCCUGCAAUUUCAACAGCUCGCAGUCAAG” it was 0.0578; in that of “GGUCACGUCUCAAUCAACUCUCCCGAGGGGGGGAAAACCCCUUUACCCUCAAUUUCAACAGCUCGCAGUCAAG”, -0.503; in that of “GGUCACGUCUCAAUCAACUCUAUUUCCAGGGAAAUCCCUGGCUAUCUCAACAGCUCGCAGUCAAG”, -0.119.
Regarding “GGUCACGUCUCAAUCAACUCUUCCUCCAGGGAAAACCCUGGCAUUUUCAACAGCUCGCAGUCAAG”, the binding signal (log2 fold change) stood at 0.00668.
Take “GGUCACGUCUCAAUCAACUCAUCCCCAGGAGUUUUCUCCUGCUUAUUCAACAGCUCGCAGUCAAG”: the binding signal (log2 fold change) was 0.138.
For “GGUCACGUCUCAAUCAACUCUCACGAGGGGGGGAAAACCCCUUUACCCUCCACAUCAACAGCUCGCAGUCAAG” the value was -0.341; for “GGUCACGUCUCAAUCAACUCACUCGAGGGGGGGAAAACCCCUUUACCCUCACUAUCAACAGCUCGCAGUCAAG”, -0.55.
For “GGUCACGUCUCAAUCAACUCCAUCGAGGGGGGGAAAACCCCUUUACCCUCACUCUCAACAGCUCGCAGUCAAG”, the binding signal (log2 fold change) is 0.322.
As to “GGUCACGUCUCAAUCAACUCAAUCCCAGGAGUUUACUCCUGCUUACUCAACAGCUCGCAGUCAAG”, the binding signal (log2 fold change) is -0.0564.
Turning to “GGUCACGUCUCAAUCAACUCAAUGUCAGGAGUUUACUCCUGCUUUUUCAACAGCUCGCAGUCAAG”, the binding signal (log2 fold change) was -0.225.
For “GGUCACGUCUCAAUCAACUCAUCUCCCAGGGAAAUCCCUGGUAUUCUCAACAGCUCGCAGUCAAG” the value was 0.0118.
In the case of “GGUCACGUCUCAAUCAACUCAUAAGAGGGGGGGAAAACCCCUUUGCCCUCGAAUUCAACAGCUCGCAGUCAAG” it was -0.168; in that of “GGUCACGUCUCAAUCAACUCAAUCCCCAGGGAAAUCCCUGGUUUACUCAACAGCUCGCAGUCAAG”, 0.393.
In the case of “GGUCACGUCUCAAUCAACUCCCUCGAGGGGGGGAAAACCCCUUUACCCUCAAUUUCAACAGCUCGCAGUCAAG” it was -0.0258; in that of “GGUCACGUCUCAAUCAACUCUUCGUCAGGAGUUUUCUCCUGUAAAUUCAACAGCUCGCAGUCAAG”, 0.143.
For “GGUCACGUCUCAAUCAACUCUUCCCCCAGGGAAAACCCUGGCUAUUUCAACAGCUCGCAGUCAAG”, the binding signal (log2 fold change) was 0.19.
For “GGUCACGUCUCAAUCAACUCAUCGUCCAGGGAAACCCCUGGUAUUUUCAACAGCUCGCAGUCAAG” the value was 0.0352; for “GGUCACGUCUCAAUCAACUCUAUUCCAGGAGUUUCCUCCUGUUAUCUCAACAGCUCGCAGUCAAG”, 0.16.
Regarding “GGUCACGUCUCAAUCAACUCUUUCUCAGGAGUUUACUCCUGUAAUCUCAACAGCUCGCAGUCAAG”, the binding signal (log2 fold change) was 0.271.
In the case of “GGUCACGUCUCAAUCAACUCAAUUUCAGGAGUUUUCUCCUGCAUUCUCAACAGCUCGCAGUCAAG” it was -0.0449; in that of “GGUCACGUCUCAAUCAACUCUUCGUCCAGGGAAAUCCCUGGUUAUUUCAACAGCUCGCAGUCAAG”, -0.0573; in that of “GGUCACGUCUCAAUCAACUCUUCGUCCAGGGAAACCCCUGGUAUAUUCAACAGCUCGCAGUCAAG”, 0.0135.
On to “GGUCACGUCUCAAUCAACUCAGUUUCAGGAGUUUCCUCCUGCUAUUUCAACAGCUCGCAGUCAAG”, for which the binding signal (log2 fold change) is -0.262.
In the case of “GGUCACGUCUCAAUCAACUCUUUUUCAGGAGUUUUCUCCUGUAAUCUCAACAGCUCGCAGUCAAG” it was -0.138; in that of “GGUCACGUCUCAAUCAACUCCUCAGAGGGGGGGAAAACCCCUUUACCCUCGUUAUCAACAGCUCGCAGUCAAG”, -0.487.
For “GGUCACGUCUCAAUCAACUCAUGUCCAGGAGUUUACUCCUGUUUUUUCAACAGCUCGCAGUCAAG” the value was -0.0573; for “GGUCACGUCUCAAUCAACUCAUCUUCCAGGGAAAGCCCUGGCAAUCUCAACAGCUCGCAGUCAAG”, 0.0424; for “GGUCACGUCUCAAUCAACUCUUCUUCCAGGGAAACCCCUGGUUUAUUCAACAGCUCGCAGUCAAG”, -0.201.
For “GGUCACGUCUCAAUCAACUCAUUUCCAGGAGUUUUCUCCUGCUUUCUCAACAGCUCGCAGUCAAG”, the binding signal (log2 fold change) is -0.00588.
“GGUCACGUCUCAAUCAACUCUACUCCCAGGGAAACCCCUGGUUUUUUCAACAGCUCGCAGUCAAG”: the binding signal (log2 fold change) is -0.136.
In the case of “GGUCACGUCUCAAUCAACUCAUCUUCAGGAGUUUACUCCUGCUAUGUCAACAGCUCGCAGUCAAG” it was 0.208; in that of “GGUCACGUCUCAAUCAACUCUACUCCAGGAGUUUACUCCUGUAAAUUCAACAGCUCGCAGUCAAG”, -0.109; in that of “GGUCACGUCUCAAUCAACUCUCUAGAGGGGGGGAAAACCCCUUUACCCUCAAUUUCAACAGCUCGCAGUCAAG”, 0.0538.
